# Assay results taken from PubChem BioAssay (NCI).
#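 Results reflect a 48-hour exposure of cells in 96-well plates to compound at five concentrations. GI50: concentration for 50% inhibition of growth. TGI denotes the concentration required for complete inhibition of growth.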 Peptide text beside a SMILES is read from it. * marks the point of attachment. Cbz = O=C(OCc1ccccc1)*; Boc = CC(C)(C)OC(=O)*; OBn = c1ccc(CO*)cc1
# Tested on: NCI-H322M lung
# Assay: NCI-60 cell line screen, 48 h
SMILES,TGI [µM],GI50 [µM]
CN(C)c1ccc(C=Nc2ccc(-c3nc4ccccc4o3)cc2)cc1,> 100,–
Cn1cc(-c2ccc3c(c2)ncn3-c2ccc(CC(=O)Nc3cc(C(C)(C)C)on3)cc2)cn1,7.62,0.556
CN(N=O)C(N)=NC(=O)c1ccccc1,> 100,–
N/C(=N\N=C=C1C(=O)Nc2ccc(F)cc21)NO,> 100,–
Nc1nc(Cl)c(N)c(NCC2(CO)CC(O)C2)n1 (stereo unspecified),> 100,–
Cc1ccc(S(=O)(=O)OC(C=O)C(O)C(O)COC(c2ccccc2)(c2ccccc2)c2ccccc2)cc1 (stereo unspecified),29.3,–
Cc1cc2c(C)nn(Cc3ccc(Cl)cc3Cl)c2c(C#N)c1C,> 100,–
O=c1[nH]cnc2c1nnn2C1C=C(CO)C(O)C1O (stereo unspecified),> 100,–
O=C(CN1c2ccccc2Sc2ccccc21)n1cnc2ccccc21,> 100,–
c1ccc2c(c1)SCCCSCCCS2,> 100,–
CC1=C(C(=O)Nc2cc(F)c(F)cc2F)C(c2cccc([N+](=O)[O-])c2)C(C(=O)Nc2ccccc2C(F)(F)F)=C(C)N1 (stereo unspecified),69.1,–
Cc1c(/C=N\NC(=S)N(C)CCN(C)C(=S)N/N=C\c2c(C)n(C)n(-c3ccccc3)c2=O)c(=O)n(-c2ccccc2)n1C,> 100,–
Cc1ccc(NC(=O)CCC(=O)C2CC(=O)CCC2=O)cc1C (stereo unspecified),> 100,–
COc1ccc(C(=O)Nc2ccccc2C#N)cc1,> 100,–
NC(=NCc1ccccc1)N/N=C\c1ccnc2ccccc12,35.7,–
CCCCC[C@H]1CC=CC(=O)O1,87,–
O=C(CCl)Nc1ccc(-c2nc3ccccc3s2)cc1,13.7,–
CC1(C)CC[C@]2(C(=O)O)CCC3(C)C(=CCC4[C@@]5(C)CC[C@H](OC6OCC(O)C(O)C6OC6OC(CO)C(O)C(O)C6O)C(C)(C)C5CC[C@]43C)C2C1 (stereo partly specified),4.08,–
COC(=O)C1CCCCCCCCCCC12SCCCS2 (stereo unspecified),46.8,–
CC(=O)NNc1nc(C)c(C(/C=C/c2ccc3c(c2)OCO3)=N/NC(=O)c2ccncc2)s1,> 100,–
CC(=O)OCC1OC(n2cnc3c(I)nc(I)nc32)C(OC(C)=O)C1OC(C)=O (stereo unspecified),30.7,–
COC(=O)[C@@]12C3=NO[C@]1(C(=O)OC)C(O[Si](C)(C)C(C)(C)C)C1OC(C)(C)OC1[C@@H]2[C@@H](OCc1ccccc1)CC3 (stereo partly specified),> 100,–
Cc1cc(C)c2c(c1C)CN1CN2Cc2c(C)c(C)cc(C)c21,> 100,–
COc1cc(-c2cn(-c3ccc(Cl)cc3)c(=O)n2-c2ccccc2)cc(OC)c1OC,> 100,> 60.9
COC(=O)c1c(OC(C)=O)ccc2c1c1c(n2Cc2ccccc2)C(=O)c2ccccc2C1=O,74.2,–

SMILES,TGI [µM],GI50 [µM]
CCOC(=O)/C(C#N)=N\Nc1ccc(-n2c(C)nc3ccc(Br)cc3c2=O)cc1,> 100,–
COc1ccc(Nc2nc3c(N)cc(C(F)(F)F)cc3nc2-c2ccccc2)cc1,> 100,–
Cc1nc(N=C(N)N)nc2ccc3ccccc3c12,4.6,1.48
CC(=O)NC1C(OCc2ccccc2)OC(CO)C(O)C1OCC(=O)NC(C)C(=O)NC(CCC(=O)Nc1ccc2c(c1)CN1C(=O)c3ccccc3C1=N2)C(N)=O (stereo unspecified),> 100,–
C=C1C(=O)C23C(O)C1CCC2C12CO[C@]3(O)[C@@H](O)C1C(C)(C)CCC2O (stereo partly specified),29.7,–
Nc1ncn([C@@H]2C=C(CO)C(O)C2O)c(=O)n1 (stereo partly specified),> 100,–
C1=C(N2CCOCC2)/C(=C2\SC(=Nc3ccccc3)C(=Nc3ccccc3)N2c2ccccc2)CC1,> 100,–
CCN=C(N)CSS(=O)(=O)O,> 100,–
COc1ccc([N+](=O)[O-])cc1[I+]c1cc([N+](=O)[O-])ccc1OC,> 100,–
OCCC#Cc1ccccc1C#Cc1ccccc1,25.5,12.8
COc1cc(C2c3cc4c(cc3[C@@H](OCCN)[C@H]3COC(=O)C23)OCO4)cc(OC)c1O (stereo partly specified),28.6,–
CN(Cc1cnc2nc(N)nc(N)c2n1)c1ccc(C(=O)NC2CCCCC2)cc1,> 100,–
COc1cccc(C2C3=C(COC3=O)N(CCO)c3cc4c(cc32)CCC4)c1 (stereo unspecified),> 32.3,0.404
O=C(c1no[n+]([O-])c1C(=O)c1csc2ccccc12)c1csc2ccccc12,31.2,–
CSc1ccc(C=C2N=C(c3ccccc3)N(c3cc(C(=O)c4ccccc4)ccc3N3C(=O)/C(=C/c4ccc(SC)cc4)N=C3c3ccccc3)C2=O)cc1,> 100,–
CCN1CCC(O)(c2ccccc2)C(C(=O)c2ccccc2)C1 (stereo unspecified),> 100,–
COc1ccc2c(c1)CC[C@@H]1C2CC[C@]2(C)C(=O)N(C)C(=O)CC12 (stereo partly specified),> 100,–
O=C1NC(c2ccccc2)C1N(Cc1ccccc1)Cc1ccccc1 (stereo unspecified),> 100,–
c1ncc(C23C4C5C6C4C2C6C53)[nH]1 (stereo unspecified),> 100,–
Cc1cc2c(cc1-c1cc3c(cc1C)C(C(C)C)=C(O)C(=O)/C3=C\Nc1cccc3c(N)cccc13)/C(=C/Nc1cccc3c(N)cccc13)C(=O)C(O)=C2C(C)C,> 100,–
O=C(NCCS(=O)(=O)N1C(=O)C2CCCN2C(=O)[C@@H]1Cc1ccccc1)OCc1ccccc1 (stereo partly specified),> 100,–
COC(=O)C1(Cc2ccccc2C)Cc2ccc(C)cc2C1=O (stereo unspecified),> 100,–
CC[n+]1c(/C=C/c2ccc(N(CCCl)CCCl)cc2)ccc2cc(Br)ccc21,–,623
CC1(C)CC(C2CC(C)(C)CC(C)(C)[C@H]2O)[C@@H](O)C(C)(C)C1 (stereo partly specified),> 100,–
O=C1Nc2ccccc2/C1=C\c1c(Cl)[nH]c2ccccc12,9.37,–

SMILES,TGI [µM],GI50 [µM]
O=C(Nc1ccc(-n2cc(-c3ccncc3)c(-c3ccc(O)c(Cl)c3)n2)cc1)c1ccc(Cl)c(Cl)c1,> 32.5,> 32.5
CCOc1ccc(NC(=O)/C(=C/c2ccccc2)C(C)=O)cc1,27.8,–
CC(C)=CCC/C(C)=C/CC/C(C)=C/C(O)c1ccccc1 (stereo unspecified),35,–
O=c1[nH]nc(Cc2ccc(Cl)cc2)n1Nc1ccccc1,> 100,–
N#Cc1c(-c2ccccc2)cc(Nc2ccc(F)cc2)n2c1nc1ccccc12,10.1,–
CSc1nc2ccccc2c(=O)n1-c1cccc(C)c1,> 100,–
O=C1C(c2c(O)n(-c3ccccc3)c3ccccc23)=Nc2ccccc21,> 100,–
CNC1=C(C)C(=O)C2=C(C1=O)C(COC(N)=O)C1(OC)C3NC3CN21 (stereo unspecified),2.31,–
CSc1nc(NC2OC(CO)C(O)C(O)C2O)c(N)c(=O)n1C (stereo unspecified),> 100,–
COc1cc(/C=C2\N=C(c3ccccc3)N(/N=C/c3cc4cc(C)ccc4nc3Cl)C2=O)ccc1O,> 100,–
CC(C)c1cc(C(C)C)c(P2(=O)CC3C(Cl)(Cl)C3(C)C2)c(C(C)C)c1 (stereo unspecified),28.4,–
O=S(=O)(Nc1ccc2ccc3cccc4ccc1c2c34)c1ccccc1,> 100,–
O=C1c2ccccc2-c2ccc(N(Cc3ccc(Br)cc3)Cc3ccc(Br)cc3)cc21,> 100,–
COc1ccc(OC)c(CC(=O)c2ccc(O)c(C(=O)NCCc3ccc(F)cc3)c2)c1,20.6,–
c1ccc(CNc2nc(Nc3ccc(-c4nc5ccccc5[nH]4)cc3)c3cn[nH]c3n2)cc1,11.4,2.87
CC1(c2nc3ccccc3[nH]2)CCC(CO)C(C)(C)O1 (stereo unspecified),> 100,–
COC1C2c3ccccc3C(C#N)(Cc3ccc4c(c32)OCO4)N1C(=O)c1ccccc1 (stereo unspecified),> 100,–
C=C1CCC2C3(C)COC(c4cccc(Cl)c4)OC3CCC2(C)C1/C=C/C1=CCOC1=O (stereo unspecified),> 100,> 100
OCC1OC(NC(=S)NCSCCC(F)(F)C(F)(F)C(F)(F)C(F)(F)C(F)(F)C(F)(F)F)C(O)C(O)C1O (stereo unspecified),> 100,–
COc1ccc(C(=O)Nc2ccccc2)cc1[N+](=O)[O-],> 100,–
COc1cc2c(cc1OCCCN1CCN(CCCOc3cc4c(cc3OC)C(=O)C3CCC[C@H]3C=N4)CC1)N=C[C@@H]1CCCC1C2=O (stereo partly specified),> 100,26.8
CC(=O)/C(=C\n1c(=S)[nH]c2ccc([N+](=O)[O-])cc21)C(=O)Nc1ccccc1C,> 100,–
COc1ccc(C(NCCNC(c2ccc(OC)c(OC)c2)c2cc3c(cc2O)OCO3)c2cc3c(cc2O)OCO3)cc1OC (stereo unspecified),22.3,–
Cc1[nH]c2ncn(N)c(=N)c2c1Cc1ccccc1,> 100,–
C[C@@H](Oc1cc(-n2cnc3ccc(OCC4CCN(C)CC4)cc32)sc1C(N)=O)c1ccccc1C(F)(F)F,4.7,0.664

SMILES,TGI [µM],GI50 [µM]
CCOC(=O)c1c(-c2ccccc2)[nH]c2ccccc2c1=O,> 100,–
COc1ccc(-c2c(C(=O)Nc3ccccc3)c(-c3ccccc3)n(C3OC(CO)C(O)C(O)C3O)c(=S)c2C#N)cc1 (stereo unspecified),> 100,–
CCC1c2[nH]c3ccccc3c2C[C@H]2C(=O)NC(Cc3ccccc3)C(=O)N12 (stereo partly specified),> 100,–
C=C1C(=O)OC2C3C(=C)[C@@H](OC(C)=O)CC3C(C)=CC(OC(=O)C(C)(O)C(C)OC(C)=O)[C@@H]12 (stereo partly specified),> 100,–
N=C(N)c1ccc(-c2ccc(-c3ccccc3)o2)cc1,4.59,1.99
CC(=O)C(CN1CCOCC1)C(c1ccccc1)c1c(O)c2ccccc2oc1=O (stereo unspecified),> 100,–
COc1ccc2[nH]c3c(c2c1)CCc1ccccc1-3,> 100,–
N/C(=N/O)c1cn(C2OC(CO)C(O)C2O)c2ncnc(NO)c12 (stereo unspecified),> 83,–
Nc1nc(SCC(=O)c2ccccc2)nc2nc3c(c(-c4ccccc4)c12)CCCC3,85.2,–
CCCCCNC(=O)C1C(=O)N(CCCCC)C(=O)/C1=N\N (stereo unspecified),> 100,–
Oc1ccc(-c2nc(-c3ccc(F)cc3)c(-c3ccncc3)[nH]2)cc1,71.5,19.6
COc1ccc2c(c1)OCC1Cc3cccc(OC)c3OC21 (stereo unspecified),> 100,–
CCOC(=O)C1=C(O)CSC1=Nc1ccc(N=C2SCC(O)=C2C(=O)OCC)cc1,44,–
CNS(=O)(=O)NN(C)S(=O)(=O)c1ccc(C)cc1,> 100,–
COc1ccc(C(c2ccccc2)N2C(=O)CCC2C(=O)O)cc1OC (stereo unspecified),> 100,–
CC(=O)Nc1ccc2c(c1)C(=Nc1ccc(C(=O)O)cc1)c1ccccc1-2,> 100,–
COc1cccc(/C=N/[N-]C(N)=O)c1[O-].[OH3+].[Zn+2],> 100,–
CC1=NN(c2ccccc2Cl)C2(C1)SCC(=O)N2c1nc2ccccc2s1 (stereo unspecified),> 100,–
COC(=O)C(CCCCNC(=O)OCc1ccccc1)NC(=O)C(CCC(=O)OCc1ccccc1)NC(=O)OC(C)(C)C (stereo unspecified) (Boc-Glu(OBn)-Lys(Cbz)-OMe; configuration not given here),> 100,–
Brc1ccc(C2(N3CCCCC3)CCCCC2)s1,> 100,–
COC(=O)[C@H]1[C@H](OC(=O)[C@@H](OC)c2ccccc2)ON2CC[C@@H](OC(=O)c3ccccc3)[C@H]12,> 100,–
COc1ccccc1NS(=O)(=O)c1cc(C(C)(C)C)ccc1OCCOc1ccc(C(C)(C)C)cc1S(=O)(=O)Nc1ccccc1OC,> 100,–
O=C(O)C1CCCCN1CCc1c[nH]c2ccccc12 (stereo unspecified),> 100,–
CCOC(=O)C(NC(=O)Nc1ccccc1F)(OC)C(F)(F)F (stereo unspecified),> 100,–
